This data set in a line: total protein half-life in vivo (active degradation + dilution); higher = more stable protein.
The mark [1] stands for this setting: E. coli NCM3722 delta-clpP delta-lon delta-hslV, growth: N-lim chemostat, doubling time 6 h.
Where [2] appears, read: E. coli NCM3722 delta-clpP, growth: N-lim chemostat, doubling time 6 h.
Where [3] appears, read: E. coli NCM3722 delta-hslV, growth: N-lim chemostat, doubling time 6 h.
Where [4] appears, read: E. coli NCM3722 delta-lon, growth: N-lim chemostat, doubling time 6 h.
Setting [5] is: E. coli NCM3722 delta-smpB, growth: N-lim chemostat, doubling time 6 h.
Setting [6] is: wild type E. coli NCM3722, growth: C-lim chemostat, doubling time 3 h.
Setting [7] is: wild type E. coli NCM3722, growth: C-lim chemostat, doubling time 6 h.
Where [8] appears, read: wild type E. coli NCM3722, growth: C-lim chemostat, doubling time 12 h.
Where [9] appears, read: wild type E. coli NCM3722, growth: N-lim chemostat, doubling time 6 h.
[10] abbreviates: wild type E. coli NCM3722, growth: N-lim chemostat, doubling time 12 h.
Where [11] appears, read: wild type E. coli NCM3722, growth: P-lim chemostat, doubling time 6 h.
[12] abbreviates: wild type E. coli NCM3722, growth: P-lim chemostat, doubling time 12 h.

± gives the standard deviation of the averaged measurements.

Consider “MPKYRSATTTHGRNMAGARALWRATGMTDADFGKPIIAVVNSFTQFVPGHVHLRDLGKLVAEQIEAAGGVAKEFNTIAVDDGIAMGHGGMLYSLPSRELIADSVEYMVNAHCADAMVCISNCDKITPGMLMASLRLNIPVIFVSGGPMEAGKTKLSDQIIKLDLVDAMIQGADPKVSDSQSDQVERSACPTCGSCSGMFTANSMNCLTEALGLSQPGNGSLLATHADRKQLFLNAGKRIVELTKRYYEQNDESALPRNIASKAAFENAMTLDIAMGGSTNTVLHLLAAAQEAEIDFTMSDIDKLSRKVPQLCKVAPSTQKYHMEDVHRAGGVIGILGELDRAGLLNRDVKNVLGLTLPQTLEQYDVMLTQDDAVKNMFRAGPAGIRTTQAFSQDCRWDTLDDDRANGCIRSLEHAYSKDGGLAVLYGNFAENGCIVKTAGVDDSILKFTGPAKVYESQDDAVEAILGGKVVAGDVVVIRYEGPKGGPGMQEMLYPTSFLKSMGLGKACALITDGRFSGGTSGLSIGHVSPEAASGGSIGLIEDGDLIAIDIPNRGIQLQVSDAELAARREAQDARGDKAWTPKNRERQVSFALRAYASLATSADKGAVRDKSKLGG”, for which the “total protein half-life in vivo” value by setting is: under setting [1], 4.39 ± 0.68 h; under setting [2], 3.61 ± 0.41 h; under setting [3], 3.83 ± 0.13 h; under setting [4], 4.07 ± 0.3 h; under setting [5], 3.89 ± 0.054 h; under setting [6], 3.1 ± 0.11 h. Moreover, the “total protein half-life in vivo” value by setting is: under setting [7], 5.31 ± 0.14 h; under setting [8], 9.43 ± 1.9 h; under setting [9], 3.833 ± 0.034 h; under setting [10], 5.72 ± 0.095 h; under setting [11], 5.714 ± 0.0088 h; under setting [12], 10.9 ± 0.4 h.
Regarding “MAQLSLQHIQKIYDNQVHVVKDFNLEIADKEFIVFVGPSGCGKSTTLRMIAGLEEISGGDLLIDGKRMNDVPAKARNIAMVFQNYALYPHMTVYDNMAFGLKMQKIAKEVIDERVNWAAQILGLREYLKRKPGALSGGQRQRVALGRAIVREAGVFLMDEPLSNLDAKLRVQMRAEISKLHQKLNTTMIYVTHDQTEAMTMATRIVIMKDGIVQQVGAPKTVYNQPANMFVSGFIGSPAMNFIRGTIDGDKFVTETLKLTIPEEKLAVLKTQESLHKPIVMGIRPEDIHPDAQEENNISAKISVAELTGAEFMLYTTVGGHELVVRAGALNDYHAGENITIHFDMTKCHFFDAETEIAIR”, the “total protein half-life in vivo” value is, setting by setting: under setting [1], 4.89 ± 1.6 h; under setting [4], 3.29 h.
Turning to “MKRMLINATQQEELRVALVDGQRLYDLDIESPGHEQKKANIYKGKITRIEPSLEAAFVDYGAERHGFLPLKEIAREYFPANYSAHGRPNIKDVLREGQEVIVQIDKEERGNKGAALTTFISLAGSYLVLMPNNPRAGGISRRIEGDDRTELKEALASLELPEGMGLIVRTAGVGKSAEALQWDLSFRLKHWEAIKKAAESRPAPFLIHQESNVIVRAFRDYLRQDIGEILIDNPKVLELARQHIAALGRPDFSSKIKLYTGEIPLFSHYQIESQIESAFQREVRLPSGGSIVIDSTEALTAIDINSARATRGGDIEETAFNTNLEAADEIARQLRLRDLGGLIVIDFIDMTPVRHQRAVENRLREAVRQDRARIQISHISRFGLLEMSRQRLSPSLGESSHHVCPRCSGTGTVRDNESLSLSILRLIEEEALKENTQEVHAIVPVPIASYLLNEKRSAVNAIETRQDGVRCVIVPNDQMETPHYHVLRVRKGEETPTLSYMLPKLHEEAMALPSEEEFAERKRPEQPALATFAMPDVPPAPTPAEPAAPVVAPAPKAAPATPAAPAQPGLLSRFFGALKALFSGGEETKPTEQPAPKAEAKPERQQDRRKPRQNNRRDRNERRDTRSERTEGSDNREENRRNRRQAQQQTAETRESRQQAEVTEKARTADEQQAPRRERSRRRNDDKRQAQQEAKALNVEEQSVQETEQEERVRPVQPRRKQRQLNQKVRYEQSVAEEAVVAPVVEETVAAEPIVQEAPAPRTELVKVPLPVVAQTAPEQQEENNADNRDNGGMPRRSRRSPRHLRVSGQRRRRYRDERYPTQSPMPLTVACASPELASGKVWIRYPIVRPQDVQVEEQREQEEVHVQPMVTEVPVAAAIEPVVSAPVVEEVAGVVEAPVQVAEPQPEVVETTHPEVIAAAVTEQPQVITESDVAVAQEVAEQAEPVVEPQEETADIEEVVETAEVVVAEPEVVAQPAAPVVAEVAAEVETVAAVEPEVTVEHNHATAPMTRAPAPEYVPEAPRHSDWQRPTFAFEGKGAAGGHTATHHASAAPARPQPVE”, the “total protein half-life in vivo” value was 6.39 ± 0.14 h under setting [1]; 6.74 ± 1.4 h under setting [2]; 5.1 ± 0.47 h under setting [3]; 5.65 ± 0.2 h under setting [4]; 4.9 ± 0.26 h under setting [5]; 2.91 ± 0.021 h under setting [6]. Also, the “total protein half-life in vivo” value by setting is: under setting [7], 5.69 ± 0.2 h; under setting [8], 10 ± 0.74 h; under setting [9], 5.181 ± 0.0083 h; under setting [10], 8.68 ± 0.14 h; under setting [11], 5.532 ± 0.034 h; under setting [12], 10.8 ± 0.21 h.
Consider “MINRIRVVTLLVMVLGVFALLQLISGSLFFSSLHHSQKSFVVSNQLREQQGELTSTWDLMLQTRINLSRSAVRMMMDSSNQQSNAKVELLDSARKTLAQAATHYKKFKSMAPLPEMVATSRNIDEKYKNYYTALTELIDYLDYGNTGAYFAQPTQGMQNAMGEAFAQYALSSEKLYRDIVTDNADDYRFAQWQLAVIALVVVLILLVAWYGIRRMLLTPLAKIIAHIREIAGGNLANTLTIDGRSEMGDLAQSVSHMQRSLTDTVTHVREGSDAIYAGTREIAAGNTDLSSRTEQQASALEETAASMEQLTATVKQNADNARQASQLAQSASDTAQHGGKVVDGVVKTMHEIADSSKKIADIISVIDGIAFQTNILALNAAVEAARAGEQGRGFAVVAGEVRNLASRSAQAAKEIKALIEDSVSRVDTGSVLVESAGETMNNIVNAVTRVTDIMGEIASASDEQSRGIDQVALAVSEMDRVTQQNASLVQESAAAAAALEEQASRLTQAVSAFRLAASPLTNKPQTPSRPASEQPPAQPRLRIAEQDPNWETF”, for which the “total protein half-life in vivo” value under setting [2] came out at 7.08 h; the “total protein half-life in vivo” value under setting [5] is > 8 h; the “total protein half-life in vivo” value under setting [6] amounted to 2.39 ± 0.025 h; the “total protein half-life in vivo” value under setting [7] amounted to 4.03 ± 0.12 h; the “total protein half-life in vivo” value under setting [8] stood at 5.81 ± 0.27 h.
On to “MRIILLGAPGAGKGTQAQFIMEKYGIPQISTGDMLRAAVKSGSELGKQAKDIMDAGKLVTDELVIALVKERIAQEDCRNGFLLDGFPRTIPQADAMKEAGINVDYVLEFDVPDELIVDRIVGRRVHAPSGRVYHVKFNPPKVEGKDDVTGEELTTRKDDQEETVRKRLVEYHQMTAPLIGYYSKEAEAGNTKYAKVDGTKPVAEVRADLEKILG”, for which the “total protein half-life in vivo” value came out at 5.01 ± 0.068 h under setting [1]; 5.08 ± 0.33 h under setting [2]; 5.24 ± 0.55 h under setting [3]; 5.64 ± 0.34 h under setting [4]; 4.61 ± 0.41 h under setting [5]; 3.13 ± 0.17 h under setting [6]. Besides, the “total protein half-life in vivo” value turned out to be 6.18 ± 0.47 h under setting [7]; 11.3 ± 0.76 h under setting [8]; 4.73 ± 0.35 h under setting [9]; 8.562 ± 0.056 h under setting [10]; 5.6 ± 0.35 h under setting [11]; 12.3 ± 0.84 h under setting [12].
Regarding “MTDKRKDGSGKLLYCSFCGKSQHEVRKLIAGPSVYICDECVDLCNDIIREEIKEVAPHRERSALPTPHEIRNHLDDYVIGQEQAKKVLAVAVYNHYKRLRNGDTSNGVELGKSNILLIGPTGSGKTLLAETLARLLDVPFTMADATTLTEAGYVGEDVENIIQKLLQKCDYDVQKAQRGIVYIDEIDKISRKSDNPSITRDVSGEGVQQALLKLIEGTVAAVPPQGGRKHPQQEFLQVDTSKILFICGGAFAGLDKVISHRVETGSGIGFGATVKAKSDKASEGELLAQVEPEDLIKFGLIPEFIGRLPVVATLNELSEEALIQILKEPKNALTKQYQALFNLEGVDLEFRDEALDAIAKKAMARKTGARGLRSIVEAALLDTMYDLPSMEDVEKVVIDESVIDGQSKPLLIYGKPEAQQASGE [P0A6H1]”, the “total protein half-life in vivo” value under setting [1] is 5.964 ± 0.055 h; the “total protein half-life in vivo” value under setting [2] amounted to 5.09 ± 0.56 h; the “total protein half-life in vivo” value under setting [3] is 1.47 ± 0.087 h; the “total protein half-life in vivo” value under setting [4] is 1.491 ± 0.0088 h; the “total protein half-life in vivo” value under setting [5] was determined as 1.387 ± 0.0025 h; the “total protein half-life in vivo” value under setting [6] worked out at 1.47 ± 0.017 h. The “total protein half-life in vivo” value worked out at 2.02 ± 0.24 h under setting [7]; 2.24 ± 0.37 h under setting [8]; 1.63 ± 0.065 h under setting [9]; 1.96 ± 0.22 h under setting [10]; 2.11 ± 0.12 h under setting [11]; 3.36 ± 0.35 h under setting [12].
For the sequence “MRTEYCGQLRLSHVGQQVTLCGWVNRRRDLGSLIFIDMRDREGIVQVFFDPDRADALKLASELRNEFCIQVTGTVRARDEKNINRDMATGEIEVLASSLTIINRADVLPLDSNHVNTEEARLKYRYLDLRRPEMAQRLKTRAKITSLVRRFMDDHGFLDIETPMLTKATPEGARDYLVPSRVHKGKFYALPQSPQLFKQLLMMSGFDRYYQIVKCFRDEDLRADRQPEFTQIDVETSFMTAPQVREVMEALVRHLWLEVKGVDLGDFPVMTFAEAERRYGSDKPDLRNPMELTDVADLLKSVEFAVFAGPANDPKGRVAALRVPGGASLTRKQIDEYGNFVKIYGAKGLAYIKVNERAKGLEGINSPVAKFLNAEIIEDILDRTAAQDGDMIFFGADNKKIVADAMGALRLKVGKDLGLTDESKWAPLWVIDFPMFEDDGEGGLTAMHHPFTSPKDMTAAELKAAPENAVANAYDMVINGYEVGGGSVRIHNGDMQQTVFGILGINEEEQREKFGFLLDALKYGTPPHAGLAFGLDRLTMLLTGTDNIRDVIAFPKTTAAACLMTEAPSFANPTALAELSIQVVKKAENN”, the “total protein half-life in vivo” value under setting [1] came to 6 ± 0.099 h; the “total protein half-life in vivo” value under setting [2] was determined as 5.45 ± 0.059 h; the “total protein half-life in vivo” value under setting [3] is 5.342 ± 0.032 h; the “total protein half-life in vivo” value under setting [4] worked out at 5.41 ± 0.68 h; the “total protein half-life in vivo” value under setting [5] was 5.358 ± 0.01 h; the “total protein half-life in vivo” value under setting [6] turned out to be 3.04 ± 0.18 h. The “total protein half-life in vivo” value runs as follows: under setting [7], 5.909 ± 0.023 h; under setting [8], 12.2 ± 2.5 h; under setting [9], 5.2 ± 0.1 h; under setting [10], 11.4 ± 3.1 h; under setting [11], 6.227 ± 0.049 h; under setting [12], 11.8 ± 0.74 h.

These data come from the supplement of paper PMC11246515.
